# Reference: PubChem BioAssay (NCATS)
# Inconclusive results, whose numbers are uncertain, are shown with a selection of clear calls. For some of these results: Where the call is inconclusive, the potency comes from a doubtful curve fit. The source made the active and inactive calls. Unless noted, calls come from the whole dose curve; as a rule, active = well fitted curve in the direction sought with a large enough effect; inconclusive = small, poorly fitted or top-dose-only effect, or another doubt; inactive = no such curve, though single readings can be large; an effect the other way counts as inactive or inconclusive.
# Key:
# [1] = qHTS of pediatric cancer cell lines to identify multiple opportunities for drug repurposing: Primary screen for DAOY cells (AID 1347090); settings: DAOY medulloblastoma viability, CellTiter-Glo luminescence, 48 h; activity change, negative = cytotoxic: at 46 µM (top of the series); note: potency is the fitted concentration of half-maximal effect; nearly all actives have a fitted effect of over 55% in size
# Outline: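 Cell viability, CellTiter-Glo luminescence; 500-1,000 cells/well, 8- or 11-point titration, 48 h compound exposure at 37 degrees C, 5% CO2. Controls: DMSO neutral, bortezomib 2.3 µM final as positive.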
# [2] = qHTS of pediatric cancer cell lines to identify multiple opportunities for drug repurposing: Primary screen for A673 cells (AID 1347092); settings: A673 Ewing sarcoma viability, CellTiter-Glo ATP luminescence, 48 h; activity change, negative = cytotoxic: at 46 µM (top of the series); note: nearly all actives have a fitted effect of over 45% in size; note: potency is the fitted concentration of half-maximal effect; for activity change, negative = cytotoxic: % is set by controls: 0 for no effect and ±100 for the full control effect
# Outline: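 Luminescence from CellTiter-Glo, taken after 15 min at room temperature, served as the proxy for metabolically active cells following 48 h treatment. Both potency and efficacy were taken from curves fitted to the titration data.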
# [3] = qHTS of pediatric cancer cell lines to identify multiple opportunities for drug repurposing: Primary screen for SK-N-MC cells (AID 1347093); settings: SK-N-MC viability, CellTiter-Glo luminescence, 48 h; activity change, negative = cytotoxic: at 46 µM (top of the series); note: potency is the fitted concentration of half-maximal effect;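 for activity change, negative = cytotoxic: plate controls were DMSO neutral control for no effect and bortezomib for full effect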
# Outline: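 Metabolically active cells were quantified by ATP-dependent luminescence (CellTiter-Glo, 15 min at room temperature) following 48 h treatment. Cells had been plated at 500-1,000 per well and settled for 5 h beforehand.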
# [4] = qHTS of pediatric cancer cell lines to identify multiple opportunities for drug repurposing: Primary screen for BT-37 cells (AID 1347094); note: potency is the fitted concentration of half-maximal effect;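 for activity change, negative = cytotoxic: plate controls were DMSO for no effect and bortezomib for full effect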
# Outline: (§1)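 Plated cells (500-1,000 per well, growth media) were allowed to settle for 5 hours, treated with compound dilutions for 48 hours, then lysed with CellTiter-Glo for 15 min at room temperature before luminescence reading.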
# [5] = qHTS of pediatric cancer cell lines to identify multiple opportunities for drug repurposing: Primary screen for SK-N-SH cells (AID 1347098); note: nearly all actives have a fitted effect of over 65% in size; note: potency is the fitted concentration of half-maximal effect
# Outline: (§2)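 Cells (500-1,000/well) rested 5 h, then received compounds for 48 h; metabolically active cells were measured by CellTiter-Glo luminescence. Final concentrations spanned up to 46 µM (MIPE, 11-point) or 0.59 nM-46 µM (NPC, 8-point) in primary screens, 11-point in follow-ups.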
# [6] = qHTS of pediatric cancer cell lines to identify multiple opportunities for drug repurposing: Primary screen for BT-12 cells (AID 1347101); note: potency is the fitted concentration of half-maximal effect; nearly all actives have a fitted effect of over 25% in size
# Outline: as §2
# [7] = qHTS of pediatric cancer cell lines to identify multiple opportunities for drug repurposing: Primary screen for Rh18 cells (AID 1347102); note: % is set by controls: 0 for no effect and ±100 for the full control effect; nearly all actives have a fitted effect of over 65% in size
# Outline: as §2
# [8] = qHTS of pediatric cancer cell lines to identify multiple opportunities for drug repurposing: Primary screen for OHS-50 cells (AID 1347103); note: nearly all actives have a fitted effect of over 40% in size; note: potency is the fitted concentration of half-maximal effect;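 for activity change, negative = cytotoxic: plate controls were DMSO neutral control for no effect and bortezomib positive control for full effect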
# Outline: as §2
# [9] = qHTS of pediatric cancer cell lines to identify multiple opportunities for drug repurposing: Primary screen for Rh41 cells (AID 1347108); note: potency is the fitted concentration of half-maximal effect; nearly all actives have a fitted effect of over 70% in size
# Outline: as §1
# [10] = Primary redox qHTS assay for identification of artifact compounds. (AID 1845223); settings: Amplex Red/HRP redox cycling with DTT, fluorescence; redox activity (% of DA3003): at 53.8 µM (top of the series); note: potency is the fitted concentration of half-maximal effect
# Outline: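 Redox-cycling detection via DTT (250 uM final) oxidation coupled to Amplex Red (25 uM)/HRP (250 mU/mL) in HBSS. 15 min preincubation plus 30 min after DTT, room temperature. Ex/Em 525/598 nm; 4-parameter Hill fit against DMSO and 10 uM DA3003.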
# [11] = system: Zika virus NS2B-NS3 protease (linked construct); assay: Primary screen NINDS Rhodamine qHTS for Zika virus inhibitors (AID 1347160); settings: activity change, negative = inhibition: at 57.1 µM (top of the series) unless noted; note: nearly all actives have a fitted effect of over 55% in size; note: potency is the fitted concentration of half-maximal effect; for activity change, negative = inhibition: % is set by controls: 0 for no effect and ±100 for the full control effect
# Outline: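 Aprotinin served as in-plate control. Conditions: 25 nM linked NS2B-NS3, pH 8.0 Tris buffer, titrated compounds, 15 min preincubation and 15 min reaction with 1.5 microM Rhod110 substrate at room temperature.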
# [12] = biological target: Calcium and integrin-binding protein 1 (Homo sapiens) (UniProt Q99828); assay: Primary qHTS for Identification of Calcium Integrin Binding Protein 1 (CIB1) Competitor (AID 1508620); note: potency is the fitted concentration of half-maximal effect;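 for activity change, negative = inhibition: GST tagged CIB1 binding a fluorescein labelled alphaIIb integrin peptide tracer; top concentration of the series differs between compounds; % is set by controls: 0 for no effect and ±100 for the full control effect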
# Chain of UniProt Q99828 (Q99828 whole entry, looked up): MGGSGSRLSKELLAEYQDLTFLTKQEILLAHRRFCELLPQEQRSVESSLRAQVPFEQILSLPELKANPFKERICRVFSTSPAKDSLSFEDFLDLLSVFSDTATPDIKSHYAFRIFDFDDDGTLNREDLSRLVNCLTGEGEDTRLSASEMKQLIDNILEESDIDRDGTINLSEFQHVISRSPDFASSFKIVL
# Outline: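 CIB1-GST (1 uM final) and compound incubated 15 min at room temperature before adding FITC-alphaIIb peptide tracer (100 nM final). Competition for binding read by fluorescence polarization (ex 480, em 540) after another 15 min at room temperature.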
# [13] = biological target: Glutathione peroxidase 1 (Homo sapiens) (UniProt P07203); assay: Primary qHTS Assay for Inhibitors of Recombinant Selenoprotein Glutathione Peroxidase 1 (GPX1) (AID 1845191); settings: activity, negative = inhibition: at 48.8 µM (top of the series); note: nearly all actives have a fitted effect of over 65% in size; note: potency is the fitted concentration of half-maximal effect; for activity, negative = inhibition: % is set by controls: 0 for no effect and ±100 for the full control effect
# Chain of UniProt P07203 (P07203 whole entry, looked up): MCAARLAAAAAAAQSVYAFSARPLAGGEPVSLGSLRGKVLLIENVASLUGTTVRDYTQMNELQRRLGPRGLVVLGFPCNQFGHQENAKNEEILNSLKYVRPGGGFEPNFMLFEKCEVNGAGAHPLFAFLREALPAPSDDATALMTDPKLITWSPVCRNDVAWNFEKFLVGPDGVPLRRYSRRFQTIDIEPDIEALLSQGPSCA
# Outline: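 NADPH consumption tracked by fluorescence at 340/450 nm between t=0 and t=15 min, room temperature. Final mix: 10 nM GPX1, 100 nM glutathione reductase, 1 mM GSH, 0.5 mM NADPH, 0.5 mM cumene hydroperoxide, 0.01% BSA; 30 min compound–enzyme preincubation.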
# [14] = system: WaGa; assay: qHTS assay to identify novel small-molecules to repurpose for Merkel cell carcinoma treatment (AID 1296009); settings: MCC and control cell lines, CellTiter-Glo viability, 72 h; series mostly up to 46 µM; note: nearly all actives have a fitted effect of over 60% in size; note: potency is the fitted concentration of half-maximal effect
# Outline: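 Cell viability measured by CellTiter-Glo following 72 hr compound treatment at 37 degree celsius, with NPC and MIPE libraries tested in 8- and 11-point concentration series.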
# [15] = qHTS assay to identify inhibitors of the type 1 interferon - major histocompatibility complex class I in skeletal muscle: Counter screen cell viability and HiBit confirmation (AID 1347412); settings: iHSKM muscle cells + IFN-b, HiBiT or CellTiter-Glo, 24 h; note: potency is the fitted concentration of half-maximal effect; nearly all actives have a fitted effect of over 60% in size
# Outline: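 Luminescence read-out: Nano-Glo HiBiT lytic signal from C-terminally HiBiT-tagged HLA-B in CRISPR-edited human myoblasts, plus CellTiter Glo ATP as viability counter screen. IFN-beta 4.0 ng/ml; 24 hrs treatment at 37 C, 5% CO2.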
# [16] = biological target: Cytochrome P450 2D6 (Homo sapiens) (UniProt P10635); assay: Cytochrome P450 family 2 subfamily D member 6 (CYP2D6) small molecule antagonists: luciferase biochemical (cell-free) qHTS assay (AID 1645840; active = well fitted curve in the direction sought with a large enough effect in the repeat runs; inconclusive = weak or mixed curves; inactive = no such curve, though single readings can be large; an effect the other way counts as inactive or inconclusive; note: potency is the fitted concentration of half-maximal effect; nearly all actives have a fitted effect of over 55% in size)
# Chain of UniProt P10635 (P10635 whole entry, looked up): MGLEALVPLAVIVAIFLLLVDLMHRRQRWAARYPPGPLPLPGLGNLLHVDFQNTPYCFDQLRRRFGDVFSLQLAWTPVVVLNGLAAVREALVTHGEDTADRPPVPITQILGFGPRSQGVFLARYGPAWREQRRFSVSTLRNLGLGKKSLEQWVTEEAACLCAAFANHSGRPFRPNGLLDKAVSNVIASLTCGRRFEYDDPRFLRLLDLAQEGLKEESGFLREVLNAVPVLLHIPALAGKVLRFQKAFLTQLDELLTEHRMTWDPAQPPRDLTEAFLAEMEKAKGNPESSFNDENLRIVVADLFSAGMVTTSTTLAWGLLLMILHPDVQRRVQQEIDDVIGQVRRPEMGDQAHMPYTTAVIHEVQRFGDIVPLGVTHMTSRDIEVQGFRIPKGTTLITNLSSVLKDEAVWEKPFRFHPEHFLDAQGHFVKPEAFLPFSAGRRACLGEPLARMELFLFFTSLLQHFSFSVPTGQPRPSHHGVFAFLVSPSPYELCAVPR
# Outline: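 P450-Glo CYP2D6 system: proluciferin substrate converted by enzyme to luciferin, read by luminescence proportional to activity. Enzyme-substrate mix with compound 10 min at room temperature, then NADPH regeneration 1 h before detection reagent.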
# [17] = system: KB-3-1; assay: Cytotoxic Profiling of Annotated Libraries Using Quantitative High-Throughput Screening (AID 1296008); settings: Five cell lines viability, CellTiter-Glo ATP luminescence, 48-72 h; max response: active compounds read low; note: potency is the fitted concentration of half-maximal effect; nearly all actives have a fitted effect of over 60% in size
# Outline: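 Cytotoxicity was measured as CellTiter-Glo ATP luminescence, read after 10 min at room temperature. Compound treatment of the cells lasted 48 or 72 hr at 37 degrees Celsius in a qHTS format.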
# Tags give direction and shape of the fitted curve.
smiles,measurement,setting,value
CCO[C@@H]1O[C@H](C(COCc2ccccc2)OCc2ccccc2)[C@H](OCc2ccccc2)[C@H]1O (some centres not stated),Potency,[1],"inconclusive: 21.1 µM [cytotoxic, single point]"
same,Potency,[2],"inconclusive: 26.6 µM [cytotoxic, single point]"
same,Potency,[3],"inconclusive: 33.5 µM [cytotoxic, single point]"
same,Potency,[4],"inconclusive: 43.7 µM [cytotoxic, partial curve, poor fit]"
same,Potency,[5],"inconclusive: 38.6 µM [cytotoxic, single point]"
same,Potency,[6],"inconclusive: 34.7 µM [cytotoxic, single point]"
same,Potency,[7],inactive
same,Potency,[8],"inconclusive: 27.6 µM [cytotoxic, single point]"
same,Potency,[9],"inconclusive: 16.8 µM [cytotoxic, single point]"
CC1(C)OC(=O)CC(O)C2(C)C1CC(=O)C1(C)C2C(O)CC2(C)C(c3ccoc3)OC(=O)C3OC321 (configuration not stated),Potency,[10],"inconclusive: 18.4 µM [activator, partial curve, poor fit]"
Cn1nc(-c2ccc(C(F)(F)F)cc2)nc2c(=O)n(C)c(=O)nc1-2,Potency,[11],"inconclusive: 39.8 µM [inhibitor, partial curve, poor fit]"
same,Potency,[12],inactive
same,Potency,[13],active: 25.5 µM
same,Potency,[10],active: 0.15 µM
CC(C)=CCC/C(C)=C/CC/C(C)=C/C(=O)OCC(=O)[C@@]1(O)CC[C@H]2[C@@H]3CCC4=CC(=O)C=C[C@]4(C)[C@H]3[C@@H](O)C[C@@]21C,Potency,[1],"inconclusive: 21.1 µM [cytotoxic, single point]"
same,Potency,[6],"inconclusive: 3.89 µM [cytotoxic, partial curve, poor fit]"
same,Potency,[8],"inconclusive: 6.92 µM [cytotoxic, partial curve]"
same,Potency,[14],inactive
C/C=C/C=C/C=C/C(=O)OC1C=C(C=O)C(O)(C(=O)O)C2(C)CCCC(C)(C)C12 (configuration not stated),Potency,[11],"inconclusive: 11.2 µM [inhibitor, partial curve, poor fit]"
same,Potency,[10],"inconclusive: 14.6 µM [activator, partial curve, poor fit]"
C[C@H](Oc1cc(-n2cnc3ccc(CN4CCN(C)CC4)cc32)sc1C(N)=O)c1ccccc1C(F)(F)F,Potency,[13],inactive
CC1=CCC2C(C)(C)CCC[C@]2(C)[C@@]12CC[C@](C)(CC(=O)O)O2 (some centres not stated),Potency,[11],inactive
CC1=C(C(=O)O[C@@H]2O[C@H](COC3OCC(O)C(O)C3O)[C@@H](O)[C@H](O)[C@H]2O)C(C)(C)CCC1 (some centres not stated),Potency,[10],"inconclusive: 13 µM [activator, partial curve, poor fit]"
COc1cc(N2CCC(N3CCN(C)CC3)CC2)ccc1Nc1ncc(Cl)c(Nc2ccccc2P(C)(C)=O)n1,Potency,[11],inactive
same,Potency,[10],"inconclusive: 3.77 µM [activator, full curve]"
same,Potency,[15]; HiBiT,"inconclusive: 4.97 µM [inhibitor, partial curve]"
same,Potency,[15]; Viability,"inconclusive: 4.43 µM [cytotoxic, full curve]"
c1cn2cc(-c3ccc4cn[nH]c4c3)nc(Nc3ccc(N4CCOCC4)cc3)c2n1,Potency,[16],"inconclusive: 2.13 µM [inhibitor, full curve]"
C=C1C(=O)OC2/C=C(\COC(C)=O)CC/C=C(\C=O)CC(OC(=O)CC(C)C)C12 (configuration not stated),Potency,[12],inactive
C[C@H]1C(=O)N2c3ccccc3[C@@]3(O)C[C@@H]4C(=O)N[C@](C)(c5nc6ccccc6c(=O)n54)N1[C@@H]23,Potency,[12],inactive
same,Potency,[10],"inconclusive: 13 µM [activator, partial curve, poor fit]"
CCCC1(CCC)CCC2(CCN(CCCN(CC)CC)C2)CC1,Potency,[12],"inconclusive: 79.4 µM [inhibitor, partial curve, poor fit]"
Cc1cc(Nc2ccc(NC(=O)c3ccc(Nc4ccnc5ccccc45)cc3)cc2)nc(N)n1,Potency,[16],"inconclusive: 13.5 µM [inhibitor, partial curve, poor fit]"
same,"activity, negative = inhibition",[13],inconclusive: -31.7% [inhibitor]
CC(=O)O[C@@H]1[C@@H](CO)O[C@@](CO)(O[C@H]2O[C@H](COC(=O)/C=C/c3ccccc3)[C@@H](O)[C@H](O)[C@H]2O)[C@H]1O,Potency,[11],"inconclusive: 10 µM [inhibitor, single point]"
C=C1CCC2C(C)(COC(C)=O)CCCC2(C)C1CCC(C)CC(=O)O (configuration not stated),Potency,[11],"inconclusive: 12.6 µM [inhibitor, partial curve, poor fit]"
same,Potency,[12],"inconclusive: 17.8 µM [inhibitor, full curve, poor fit]"
Cc1cc(CCCOc2c(C)cc(-c3noc(C(F)(F)F)n3)cc2C)on1,Potency,[6],"inconclusive: 24.6 µM [cytotoxic, partial curve]"
same,Potency,[16],"inconclusive: 21.9 µM [inhibitor, single point]"
same,Potency,[14],"inconclusive: 29.9 µM [inhibitor, single point]"
COc1cc2c(NC3CCN(C(C)C)CC3)nc(N3CCC(F)(F)CC3)nc2cc1OCCCN1CCCC1,Potency,[13],"inconclusive: 11.4 µM [inhibitor, partial curve]"
same,Potency,[10],"inconclusive: 6.7 µM [activator, full curve]"
O=C1C(O)=C(O)C(=O)C(O)=C1O,Potency,[2],inactive
same,Potency,[3],inactive
same,Potency,[4],inactive
same,Potency,[5],inactive
same,Potency,[8],inactive
Cn1sc(=O)n(Cc2ccccc2)c1=O,Potency,[12],active: 8.91 µM
COC(=O)c1c(C)cc(OC(=O)c2c(C)cc(OC)cc2OC)cc1O[C@@H]1O[C@H](CO)[C@@H](O)[C@H](O)[C@H]1O,Potency,[10],active: 2.92 µM
O=C(CCCCCCC(=O)Nc1ccc(C2OC(CSc3nc(-c4ccccc4)c(-c4ccccc4)o3)CC(c3ccc(CO)cc3)O2)cc1)NO (configuration not stated),Potency,[11],"inconclusive: 15.8 µM [inhibitor, partial curve, poor fit]"
same,Potency,[13],"inconclusive: 12.8 µM [inhibitor, partial curve]"
same,Potency,[17],"inconclusive: 16.4 µM [inhibitor, single point]"
